Assay results from ChEMBL document CHEMBL4888484, “Replenishing the malaria drug discovery pipeline: Screening and hit evaluation of the MMV Hit Generation Library 1 (HGL1) against asexual blood stage Plasmodium falciparum ,using a nano luciferase reporter read-out” (2022).
Out of some 150,000 compounds screened, about 540 (0.36%) showed an effect of 50% or more. The list shows a part of the results.

System: Plasmodium falciparum
Experiment: Primary screen in NF54 nanoGlo assay, in single point, at 2uM, 72h; a lower Z score goes with more inhibition
Assay type: functional, Erythrocyte
Details: timepoint 72 hour

SMILES | % Inhibition [%] | Z score
CCOC(=O)CC1(NC(=O)c2cn(Cc3ccc(Cl)cc3)nn2)CCCCC1 | 1 | -0.09
COCC(=O)N[C@@H]1CC[C@@]2(OC)CCN(C(=O)Cn3nc(C)cc3C)[C@H]2C1 | -16 | 1.45
O=C(c1c[nH]nc1-c1ccsc1)N1CCn2nc(C3CC3)cc2C1 | -5 | 0.54
O=C(c1ccc(Cl)cc1OC1CCN(Cc2cc(F)cc(F)c2)CC1)N1CCCCC1 | -5 | 0.7
Cc1nnc2ccc(N3CCC4(CCCCC4)C3)nn12 | 17 | -1.93
CC[C@@H](Cn1cnc(-c2ccccc2)c1-c1nccs1)N1CCOCC1 | 1 | -0.18
O=C(NCc1noc(-c2ccco2)n1)c1cnc2ccccn2c1=O | -5 | 0.87
O=C(NCCn1cccn1)N1CCC=C(c2ccccc2)C1 | -5 | 0.91
Cc1cc(C)n(-c2nc3c(c(=O)n2CC(=O)NCc2ccc4c(c2)OCO4)CCCC3)n1 | 0 | 0.01
O=C(c1cc[nH]n1)N1CCN(c2nncc3ccccc23)CC1 | -27 | 5.71
CC[C@@H](C(=O)N1CCN(c2nccs2)CC1)n1cccn1 | -7 | 0.95
COCCNc1nc(-c2cccc(C)c2)c2c(N)n(C(C)(C)C)nc2n1 | -10 | 1.78
Cc1nc(NC2CC(C)(C)C2)cc(-c2cccnc2)n1 | -8 | 1.6
CCS(=O)(=O)N1CCC[C@@](OC)(C(F)(F)F)C1 | -12 | 2.4
CC(C)C(=O)N1C[C@@H]2COCCN2C2(CN(C(=O)Nc3ccc(F)cc3)C2)C1 | -10 | 1.44
CCOC(=O)N1CCN(C(=O)COc2ccc3c(C(C)C)cc(=O)n(CC)c3c2)CC1 | -7 | 1.25
COc1ccc(CNC(=O)OCc2nccnc2C(=O)Nc2ccc(Br)cn2)cc1 | -5 | 0.97
Cc1nc(C(=O)NCC2CCN(Cc3scnc3C)CC2)cs1 | 3 | -0.49
CC(C)c1nc2c([nH]1)C[C@@H](C(=O)N1CCCC(F)(F)CC1)CC2 | -6 | 0.94
COCc1c(C(=O)N2CC[C@H](CCc3noc(C4CC4)n3)C2)noc1C | -1 | 0.22
Cc1oc2ccccc2c1C(=O)N1CCCC[C@@H]1CCS(C)(=O)=O | -5 | 1.03

SMILES | % Inhibition [%] | Z score
O=C(CCC1CCCC1)NCc1cccc(-c2ncc(-c3ccc(F)cc3)[nH]2)c1 | 2 | -0.26
CCc1nc(C)c(CN2CC[C@@]3(CCCN(Cc4cccc(OC)c4OC)C3)C2)[nH]1 | 1 | -0.07
COc1ccc(Oc2c(Cl)cnn(-c3c(Cl)cc(F)cc3Cl)c2=O)cc1 | -5 | 0.67
O=C(c1cccc(F)c1)N(Cc1c(-c2ccccc2)noc1N1CCCCC1)C1CC1 | -6 | 0.88
CC(NCC(O)c1cc(Cl)c2c(c1)OCCO2)c1ccc(C(F)F)nc1 (stereo unspecified) | 6 | -0.68
COc1ccccc1N1CCN(C(=O)c2nccnc2NC(=O)c2ccccc2)CC1 | 2 | -0.42
Cc1noc(C)c1C(=O)NCc1nc(C2CCC(F)(F)CC2)no1 | -10 | 1.22
O=C(NCc1cccc(Cl)c1)c1ccc(-c2[nH]nc3c2CCCc2ccccc2-3)cc1 | 2 | -0.2
O=C(CCc1conc1-c1cccc(F)c1)NCC1CCCCC1 | -13 | 1.78
COc1cccc([C@@H]2CNC(=O)c3nc(-c4csc(C)n4)[nH]c3C2)c1 | -11 | 1.39
OCCO[C@H]1C[C@@H](O)C12CCN(Cc1nc3c(s1)CCCC3)CC2 | -14 | 1.5
Cc1nc(C(=O)N(CCc2c[nH]c3ccccc23)C2CCCCC2)cs1 | 4 | -0.81
CNc1nc2c(c(C(=O)N3CCCC3)n1)CN(C[C@H](C)c1ccccc1)CC2 | -7 | 1.33
Cc1ccccc1C(=O)N1CCC[C@@H]1COc1ccc(C(=O)N2CCOCC2)cc1 | -11 | 2.03
Cc1nc(C(C)(C)NCC(=O)NCc2cccs2)sc1C | -14 | 2.28
CC1CC1C(=O)NCCC(=O)Nc1ccc(N(C)C)cc1 (stereo unspecified) | -7 | 0.72
C[C@]1(O)C[C@@H](NC(=O)N[C@H]2C[C@H](c3ccc(Br)cc3)C2)C1 | -1 | 0.15
CCN(CC)C(=O)Cn1c(=O)n(Cc2ccccc2)c(=O)c2c1c(C)nn2CC | 5 | -0.64
COC(=O)CS(=O)(=O)N[C@@H](C)c1cccc(Cl)c1 | 5 | -1.12
COc1ccc(C[C@H](C)C(=O)NCc2nccc(N)n2)cc1F | -7 | 0.99
COCC(=O)N1CCCN(C(=O)c2cn(C)c3ccc(C)cc3c2=O)CC1 | -14 | 2.59

SMILES | % Inhibition [%] | Z score
Cc1nc([C@H](C)NC(=O)c2cnc(C3CC3)nc2)n[nH]1 | 8 | -1.09
Cc1ccc2nc(C)c(-c3nc(-c4cccnn4)no3)n2c1 | -14 | 2.25
CC(C)C(C(=O)NCC1CCCO1)C(C)NC(=O)OC(C)(C)C (stereo unspecified) | 13 | -1.46
CN1CCN(CC2=Nc3ccccc3S(=O)(=O)N2)c2ccccc21 | -6 | 1.05
Cc1nsc(C(=O)N[C@H]2CCS(=O)(=O)C3(CCC3)C2)n1 | -8 | 1.56
O=C(OCc1ccccc1)N1C2C=CC(CC2)C1c1ccc(OCc2ccccc2)cc1 (stereo unspecified) | -24 | 2.87
Cn1cc(CN(C(=O)C[C@H]2CCCO2)C2CC2)cn1 | -6 | 1.17
CN(C[C@H]1CCOC1)S(=O)(=O)c1ccc2c(c1)CCCC2 | -7 | 0.93
Cc1ccc(-c2cnc(Oc3ccc(C(=O)NCc4ccccc4C)cc3)nc2)cc1 | -5 | 0.61
CCCOc1ccc(CN(CCOC)CCOc2ccccc2F)cc1CO | -17 | 2.5
Cc1ncsc1C(=O)N(C)Cc1ccc(C2CC2C)o1 (stereo unspecified) | -13 | 1.88
Cc1ccc2nc(COc3ccc(C)nc3)cn2c1 | -16 | 2.54
CC(=O)N1N=C(c2cccc(Cl)c2)O[C@H]1c1ccc(OCc2ccccc2)cc1 | 5 | -0.61
CCc1ccccc1NC(=O)CN1CCn2c(nnc2C(F)(F)F)C1 | 2 | -0.42
Cc1cc2nc(-c3ccc(C)c(NC(=O)c4cc5ccccc5o4)c3)oc2cc1C | -10 | 1.63
Cc1cc(C(=O)N2CCC3(CCC(=O)N([C@H]4CCN(C)C4)C3)CC2)cs1 | 3 | -0.54
CO[C@H]1[C@@H]2CC[C@H]1CN(Cc1cc(C#CCO)cs1)C2 | -8 | 0.85
Cc1nc([C@H](C)NC(=O)c2ccccc2-c2nc[nH]n2)n[nH]1 | -2 | 0.32
O=C(c1cscn1)N1Cc2cccnc2C1 | -19 | 2.22
CS(=O)(=O)C[C@H]1CCCN(Cc2ccc3cccc(Cl)c3n2)C1 | -4 | 0.51
Cc1cc(OCC(=O)N(C(C)C)C(C)C)c2cnn(C)c2n1 | -9 | 1.26

SMILES | % Inhibition [%] | Z score
Cc1cnn(CCNC(=O)CCc2cn[nH]c2)c1 | -7 | 0.96
CCc1nn2c(-c3ccccn3)ccnc2c1-c1cccc(Cl)c1 | -19 | 2.65
CC(C)C[C@H](C)N(C)C(=O)c1cc(F)cc(F)c1 | -16 | 1.99
Cc1ccc(-c2csc(NC(=O)Cc3cccc4ccccc34)c2C(=O)O)cc1C | -11 | 1.86
CC1CC(C)CC2(C1)NC(=O)N(Cc1ccc(S(C)(=O)=O)o1)C2=O (stereo unspecified) | -1 | 0.17
O=C1CCCN1Cc1cn(C2CN(C(=O)COc3ccc(Cl)cc3)C2)nn1 | -16 | 2.5
CCOC1CC(N(C)C(=O)C2CC3CCC2C3)C1(C)C (stereo unspecified) | 0 | 0.02
COc1ccccc1[C@H]1CCN(c2cc3nncn3c(C)n2)C1 | -1 | 0.18
CO[C@H]1COC[C@@H]1NC(=O)c1ccc(CO)cc1 | -13 | 1.51
Cc1csc(C2CN(C(=O)NC3CCc4ccccc43)CCO2)n1 (stereo unspecified) | -9 | 1.4
COc1ccc(CNC(=O)CCN2C=Cc3cc(OC)c(OC)cc3CC2=O)cc1 | 4 | -0.53
CN(CC(N)=O)c1ccnc(Cc2ccccc2)n1 | -12 | 1.57
CCCc1cc(C(=O)N2C[C@@H]3CC[C@H]2CN(C(C)=O)C3)n(C)n1 | 3 | -0.61
CN(C(=O)C(=Cc1ccc(Cl)cc1)c1ccc(F)cc1)[C@H]1CCS(=O)(=O)C1 | -3 | 0.48
COC(=O)COCC(=O)N1CCC(C)C(OC)C1 (stereo unspecified) | -3 | 0.33
CC(N1C(=O)[C@H]2CCCCN2C1=O)C(C)(C)C (stereo partly specified) | -5 | 0.62
CCc1nccn1C[C@H]1CCCN1C(=O)Cc1c(Cl)cccc1Cl | 4 | -0.54
COCCN/C(Cc1ccc(Cl)cc1)=N\NC(=O)OC(C)(C)C | -3 | 0.33
Cc1ccc(S(=O)(=O)NCC(=O)NCCN2CCNC2=O)c(C)c1 | -11 | 2.03
CC1CC1C(=O)NC1CCCC(NC(=O)OC(C)(C)C)C1 (stereo unspecified) | -5 | 0.51
